Patent publication US5776901A, “Polypeptide analogues having growth hormone releasing activity” (Administrators of the Tulane Educational Fund, priority 1992, dated 1998)
“And” between values parts separate entries of the source, which are not always exact repeats. Identical values can stand only once. Part of at least one peptide drawing is inferred or uncertain, most often the ends. Where a SMILES comes first, the peptide text is derived from it. Where no end group is shown, it is not given here. [ ]: non-standard residue; d: D form. The star is where a group is joined. X2 = CCN(CC)[C@H](Cc1ccc2ccccc2c1)C(=O)*; d2Nal = N[C@H](Cc1ccc2ccccc2c1)C(=O)O; dNMeF = CN[C@H](Cc1ccccc1)C(=O)O; d3Pal = N[C@H](Cc1cccnc1)C(=O)O; dTic = O=C(O)[C@H]1Cc2ccccc2CN1; Orn = NCCC[C@H](N)C(=O)O; NH(CH2)6NH2 = NCCCCCCN*; NH(CH2)5NH2 = NCCCCCN*; X1 = NC1CCC(N*)CC1; Ava = NCCCCC(=O)O

Tested on: serum growth hormone (GH)
Assay: In vivo GH release in pentobarbital anesthetized rats, i.v. injection
Design: species or system rat
Settings: sacrificed 10 min after injection, N = 6
Method: Immature female Sprague-Dawley rats were obtained from the Charles River Laboratories (Wilmington, Mass.). After arrival they were housed at 25° C. with a 14:10 hour light:dark cycle. Water and Purina rat chow were available ad libitum. Pups were kept with their mothers until 21 days of age.
Twenty-six day old rats, six rats per treatment group, were anesthetized interperitoneally with 50 mg/kg of pentobarbital 20 minutes prior to i.v. treatment with peptide. Normal saline with 0.1% gelatin was the vehicle for intravenous (i.v.) injections of the peptides. The anesthetized rats, weighing 55-65 grams, were injected i.v. with the quantity of growth hormone releasing compounds indicated in Table 3. Injection was made as a 0.1 mL solution into the jugular vein.
All animals were sacrificed by guillotine 10 minutes after the final test injection (see Table 3). Trunk blood for the determination of blood GH levels was collected following decapitation. After allowing the blood to clot, it was centrifuged and the serum was separated from the clot. Serum was kept frozen until the day of sampling for radioimmunoassay (RIA) determination of growth hormone levels according to the following procedure, as developed by the National Institute of Arthritis, Diabetes and Digestive and Kidney Diseases (NIADDK).
Reagents are generally added to the RIA analysis tubes at a single sitting, at refrigerator temperature (about 4° C.) in the following sequence:
(b) "cold" (i.e., non-radioactive) standard or unknown serum sample to be analyzed,
(c) radio-iodinated growth hormone antigen, and
(d) growth hormone antiserum.
Reagent addition is generally carried out so that there is achieved a final RIA tube dilution of about 1:30,000 (antiserum to total liquid volume; vol:vol).
The mixed reagents are then typically incubated at room temperature (about 25° C.) for about 24 hours prior to addition of a second antibody (e.g., goat or rabbit anti-monkey gamma globulin serum) which binds to and causes precipitation of the complexed growth hormone antiserum. Precipitated contents of the RIA tubes are then analyzed for the number of counts in a specified period of time in a gamma scintillation counter. A standard curve is prepared by plotting number of radioactive counts versus growth hormone (GH) level. GH levels of unknowns are then determined by reference to the standard curve.
Serum GH was measured by RIA with reagents provided by the National Hormone and Pituitary Program.
Serum levels in Table 3 are recorded in ng/mL in terms of the rat GH standard of 0.61 International Units/mg (IU/mg). Data is recorded as the mean +/- standard error of the mean (SEM). Statistical analysis was performed with Student's t-test. In Table 3 the results shown are the average of studies with six rats.
The procedure of Example 2 was repeated.

[1] = Table 5, total dose 0.03 μg i.v.
[2] = Table 5, total dose 0.10 μg i.v.
[3] = Table 5, total dose 0.30 μg i.v.
[4] = Table 5, total dose 1.00 μg i.v.
[5] = Table 3, total dose 0.3 μg i.v., mean
[6] = Table 3, total dose 1.0 μg i.v., mean
[7] = Table 3, total dose 3.0 μg i.v., mean
[8] = Table 3, total dose 10.0 μg i.v., mean
[9] = Table 5, total dose 3.00 μg i.v.
[10] = Table 5, total dose 10.00 μg i.v.
[11] = Table 6, total dose 0.30 μg i.v.
[12] = Table 6, total dose 1.00 μg i.v.
[13] = Table 6, total dose 3.00 μg i.v.
[14] = Table 6, total dose 10.00 μg i.v.
[15] = Table 6, total dose 0.03 μg i.v.
[16] = Table 6, total dose 0.10 μg i.v.

Compound: C[C@@H](N)C(=O)N[C@H](Cc1ccc2ccccc2c1)C(=O)N[C@H](C)C(=O)N[C@@H](Cc1c[nH]c2ccccc12)C(=O)N[C@H](Cc1ccccc1)C(=O)NC1CCC(N)CC1 (stereo partly drawn) [DAla-DβNal-DAla-Trp-DPhe-NH-Chx-NH2] (H-[dA][d2Nal][dA]W[dF]-X1)
- GH Released Serum GH [1]: 335 ng/mL
- GH Released Serum GH [2]: 652 ng/mL
- GH Released Serum GH [3]: 1528 ng/mL
- GH Released Serum GH [4]: 2410 ng/mL

Compound: C[C@H](NC(=O)[C@@H](Cc1ccc2ccccc2c1)NC(=O)[C@@H](C)N)C(=O)N[C@@H](Cc1c[nH]c2ccccc12)C(=O)N[C@H](Cc1ccccc1)C(=O)NCCCCCN [D-Ala-DβNal-Ala-Trp-DPhe-NHCH2 CH2 CH2 CH2 CH2 NH2] (H-[dA][d2Nal]AW[dF]-{NH(CH2)5NH2})
- GH Released Serum GH [5]: 180 ng/mL
- GH Released Serum GH [6]: 686 ng/mL
- GH Released Serum GH [7]: 1490 ng/mL
- GH Released Serum GH [8]: 2248 ng/mL

Compound: C[C@H](NC(=O)[C@@H](Cc1ccc2ccccc2c1)NC(=O)[C@@H](C)N)C(=O)N[C@@H](Cc1c[nH]c2ccccc12)C(=O)N(C)[C@H](Cc1ccccc1)C(=O)N[C@@H](CCCCN)C(N)=O [DAla-DβNal-Ala-Trp-NMe-DPhe-Lys-NH2] (H-[dA][d2Nal]AW[dNMeF]K-NH2)
- GH Released Serum GH [1]: 123 ng/mL
- GH Released Serum GH [2]: 132 ng/mL
- GH Released Serum GH [3]: 232 ng/mL
- GH Released Serum GH [4]: 233 ng/mL

Compound: C[C@H](NC(=O)[C@@H](Cc1ccc2ccccc2c1)NC(=O)[C@@H](C)N)C(=O)N[C@@H](Cc1c[nH]c2ccccc12)C(=O)N[C@H](Cc1ccccc1)C(=O)NC1CCC(N)CC1 (stereo partly drawn) [DAla-DβNal-Ala-Trp-DPhe-NH-Chx-NH2] (H-[dA][d2Nal]AW[dF]-X1)
- GH Released Serum GH [1]: 517 ng/mL
- GH Released Serum GH [2]: 846 ng/mL and 1246 ng/mL and 1078 ng/mL
- GH Released Serum GH [3]: 1886 ng/mL and 1616 ng/mL and 1831 ng/mL
- GH Released Serum GH [4]: 2209 ng/mL and 2574 ng/mL and 3120 ng/mL
- GH Released Serum GH [9]: 3359 ng/mL and 2789 ng/mL

Compound: C[C@H](NC(=O)[C@@H](Cc1ccc2ccccc2c1)NC(=O)[C@@H](C)N)C(=O)N[C@@H](Cc1c[nH]c2ccccc12)C(=O)N[C@H](Cc1cccnc1)C(=O)N[C@@H](CCCCN)C(N)=O [DAla-DβNal-Ala-Trp-DPal-Lys-NH2] (H-[dA][d2Nal]AW[d3Pal]K-NH2)
- GH Released Serum GH [1]: 203 ng/mL
- GH Released Serum GH [3]: 584 ng/mL and 979 ng/mL
- GH Released Serum GH [4]: 1691 ng/mL
- GH Released Serum GH [9]: 3249 ng/mL

Compound: C[C@H](NC(=O)[C@@H](Cc1ccc2ccccc2c1)NC(=O)[C@@H](C)N)C(=O)N[C@@H](Cc1c[nH]c2ccccc12)C(=O)N1CCC[C@@H]1C(=O)N[C@@H](CCCCN)C(N)=O [DAla-DβNal-Ala-Trp-DPro-Lys-NH2] (H-[dA][d2Nal]AW[dP]K-NH2)
- GH Released Serum GH [3]: 234 ng/mL
- GH Released Serum GH [4]: 358 ng/mL
- GH Released Serum GH [9]: 576 ng/mL
- GH Released Serum GH [10]: 1624 ng/mL
- GH Released Serum GH [11]: 234 ng/mL
- GH Released Serum GH [12]: 358 ng/mL
- GH Released Serum GH [13]: 576 ng/mL
- GH Released Serum GH [14]: 1624 ng/mL

Compound: HWAWFK-NH2 [His-Trp-Ala-Trp-Phe-Lys-NH2]
- GH Released Serum GH [4]: 125 ng/mL
- GH Released Serum GH [9]: 201 ng/mL
- GH Released Serum GH [10]: 130 ng/mL
- GH Released Serum GH (Table 5, total dose 30.00 μg i.v.): 182 ng/mL

Compound: C[C@H](NC(=O)[C@@H](Cc1ccccc1)NC(=O)[C@H](Cc1c[nH]c2ccccc12)NC(=O)[C@H](C)NC(=O)[C@@H](Cc1ccc2ccccc2c1)NC(=O)[C@@H](C)N)C(=O)NCCCCCCN [DAla-DβNal-Ala-Trp-DPhe-Ala-1,6,hexyldiamine] (H-[dA][d2Nal]AW[dF]A-{NH(CH2)6NH2})
- GH Released Serum GH [15]: 395 ng/mL
- GH Released Serum GH [16]: 905 ng/mL
- GH Released Serum GH [11]: 735 ng/mL
- GH Released Serum GH [12]: 2708 ng/mL

Compound: CCN(CC)[C@H](Cc1ccc2ccccc2c1)C(=O)N[C@@H](C)C(=O)N[C@@H](Cc1c[nH]c2ccccc12)C(=O)N[C@H](Cc1ccccc1)C(=O)N[C@@H](CCCCN)C(N)=O [Nαdiethyl-DβNal-Ala-Trp-DPhe-Lys-NH2] (X2-AW[dF]K-NH2)
- GH Released Serum GH [5]: 462 ng/mL and 531 ng/mL
- GH Released Serum GH [6]: 899 ng/mL and 1156 ng/mL
- GH Released Serum GH [7]: 1786 ng/mL and 2664 ng/mL

Compound: C[C@H](NC(=O)[C@@H](Cc1ccc2ccccc2c1)NC(=O)[C@@H](C)NC(=O)CCCCN)C(=O)N[C@@H](Cc1c[nH]c2ccccc12)C(=O)N[C@H](Cc1ccccc1)C(=O)N[C@@H](CCCCN)C(N)=O [Ava-DAla-DβNal-Ala-Trp-DPhe-Lys-NH2] (H-[Ava][dA][d2Nal]AW[dF]K-NH2)
- GH Released Serum GH [1]: 209 ng/mL
- GH Released Serum GH [2]: 144 ng/mL
- GH Released Serum GH [3]: 185 ng/mL
- GH Released Serum GH [4]: 499 ng/mL

Compound: CC(=O)N[C@H](Cc1ccc2ccccc2c1)C(=O)N[C@@H](C)C(=O)N[C@@H](Cc1c[nH]c2ccccc12)C(=O)N[C@H](Cc1ccccc1)C(=O)N[C@@H](CCCCN)C(N)=O [NαAcetyl-DβNal-Ala-Trp-DPhe-Lys-NH2] (Ac-[d2Nal]AW[dF]K-NH2)
- GH Released Serum GH [5]: 339 ng/mL
- GH Released Serum GH [6]: 430 ng/mL
- GH Released Serum GH [7]: 634 ng/mL

Compound: C[C@H](NC(=O)[C@@H](Cc1ccc2ccccc2c1)NC(=O)[C@@H](C)N)C(=O)N[C@@H](Cc1c[nH]c2ccccc12)C(=O)N1Cc2ccccc2C[C@@H]1C(=O)N[C@@H](CCCCN)C(N)=O [DAla-DβNal-Ala-Trp-DTic-Lys-NH2] (H-[dA][d2Nal]AW[dTic]K-NH2)
- GH Released Serum GH [1]: 141 ng/mL
- GH Released Serum GH [2]: 156 ng/mL
- GH Released Serum GH [3]: 124 ng/mL
- GH Released Serum GH [4]: 151 ng/mL

Compound: C[C@H](NC(=O)[C@@H](Cc1ccc2ccccc2c1)NC(=O)[C@@H](N)CO)C(=O)N[C@@H](Cc1c[nH]c2ccccc12)C(=O)N[C@H](Cc1ccccc1)C(=O)N[C@@H](CCCCN)C(N)=O [Ser-DβNal-Ala-Trp-DPhe-Lys-NH2] (H-S[d2Nal]AW[dF]K-NH2)
- GH Released Serum GH [5]: 227 ng/mL
- GH Released Serum GH [6]: 595 ng/mL
- GH Released Serum GH [7]: 1303 ng/mL
- GH Released Serum GH [8]: 2919 ng/mL

Compound: C[C@H](NC(=O)[C@@H](Cc1ccc2ccccc2c1)NC(=O)[C@@H](C)N)C(=O)N[C@@H](Cc1c[nH]c2ccccc12)C(=O)N[C@H](Cc1ccccc1)C(=O)N[C@@H](CCCN)C(N)=O [DAla-DβNal-Ala-Trp-DPhe-OrnNH2] (H-[dA][d2Nal]AW[dF][Orn]-NH2)
- GH Released Serum GH [15]: 515 ng/mL
- GH Released Serum GH [16]: 787 ng/mL
- GH Released Serum GH [11]: 1288 ng/mL
- GH Released Serum GH [12]: 1888 ng/mL

Compound: C[C@H](NC(=O)[C@@H](Cc1ccc2ccccc2c1)NC(=O)[C@@H](C)N)C(=O)N[C@@H](Cc1c[nH]c2ccccc12)C(N)=O [DAla-DβNal-Ala-TrpNH2] (H-[dA][d2Nal]AW-NH2)
- GH Released Serum GH [11]: 115 ng/mL
- GH Released Serum GH [12]: 107 ng/mL
- GH Released Serum GH [13]: 101 ng/mL
- GH Released Serum GH [14]: 199 ng/mL
- GH Released Serum GH (Table 6, total dose 30.00 μg i.v.): 232 ng/mL

Compound: C[C@H](NC(=O)[C@@H](Cc1ccc2ccccc2c1)NC(=O)[C@H](N)Cc1c[nH]c2ccccc12)C(=O)N[C@@H](Cc1c[nH]c2ccccc12)C(=O)N[C@H](Cc1ccccc1)C(=O)N[C@@H](CCCCN)C(N)=O [D-Trp-DβNal-Ala-Trp-DPhe-Lys-NH2] (H-[dW][d2Nal]AW[dF]K-NH2)
- GH Released Serum GH (Table 3, total dose 0.1 μg i.v., mean): 226 ng/mL
- GH Released Serum GH [5]: 245 ng/mL
- GH Released Serum GH [6]: 437 ng/mL
